{"source": "patent US9103830B2", "about": "“Enzyme sensors, methods for preparing and using such sensors, and methods of detecting protease activity” (Georgia State University Research Foundation, Inc., priority 2006, dated 2015)", "molecules": {"B1": {"name": "EGFP-E-III-F-R197-GPARL: trypsin sensor of Table 1, cleavage linker EEEIAEAFAVFDADGNGYISAAGPARLVMTNL inserted in position 172 in EGFP (protein)", "chain": "MVSKGEELFTGVVPILVELDGDLNGHKFSVSGEGEGDATYGKLTLKFICTTGKLPVPWPTLVTTLTYGVQCFSRYPDHMKQHDFFKSAMPEGYVQERTIFFKDDGNYKTRAEVKFEGDTLVNRIELKGIDFKEDGNILGHKLEYNYNSHNVYIMADKQKNGIKVNFKIRHNIEEEEIAEAFAVFDADGNGYISAAGPARLVMTNLDGSVQLADHYQQNTPIGDGPVLLPDNHYLSTQSALSKDPNEKRDHIVLLEFVTAAGITLGMDELYK"}}, "key": {"trypsin [1]": {"target": "T1, trypsin (Bos taurus, UniProt P00760)", "T1 construct": "Active trypsin is produced only after trypsinogen reaches the small intestine through the common bile duct and is cleaved by enterokinase; purchased Sigma, St. Louis; host or cells: bovine pancreas", "T1 sequence (P00760 24-246)": "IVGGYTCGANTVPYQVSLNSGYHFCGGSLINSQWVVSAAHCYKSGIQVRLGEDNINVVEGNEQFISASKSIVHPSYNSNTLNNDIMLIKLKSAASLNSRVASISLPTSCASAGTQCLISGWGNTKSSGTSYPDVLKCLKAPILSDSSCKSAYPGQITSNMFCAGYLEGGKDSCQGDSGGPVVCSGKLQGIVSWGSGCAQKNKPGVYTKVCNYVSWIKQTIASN", "experiment": "Optical signal change / dynamic range of trypsin sensors upon trypsin digestion", "type": "biochemical, bovine", "details": "absorbance ratio 490 nm/398 nm after versus before trypsin cleavage", "procedure": "Spectral Properties Protease Sensors after Protease Digestion Trypsin digestion of 15 μM EGFP-T/C1 and EGFP-T/C2 was performed by adding stock trypsin from bovine pancreas (Sigma, St. Louis) up to a final concentration of 0.02 μM in trypsin digestion buffer (10 mM Tris, 20 mM CaCl2, pH 7.4). The UV-visible spectra after trypsin digestion were measured in a 1 cm pathway cuvette at different time intervals (0, 1, 3, 5, 10, 20, 30, 60, 90 and 120 min). In order to measure fluorescence spectra of EGFP-T/C1 and EGFP-T/C2 following trypsin digestion, 0.02 μM trypsin were added to 1 μM EGFP-T/C1 and EGFP-T/C2 samples in trypsin digestion buffer (10 mM Tris, 20 mM CaCl2, pH 7.4), respectively. Fluorescence emission of trypsin sensors at 508 nm with excitation at 398 and 490 nm was recorded at different time intervals (0, 1, 3, 5, 10, 20, 30, 60, 90 and 120 min). […]\nIn order to evaluate designed trypsin sensors, the dynamic range calculation for optical signal change in absorbance or fluorescence upon trypsin digestion is determined by equation 1: […]\nIn order to evaluate designed trypsin sensors, the dynamic range calculation for absorbance change upon trypsin digestion is determined through the following equation: […]\nWhere A490a and A398a are the absorbances at 490 nm and 398 nm after cleavage, respectively; A490b and A398b are the absorbances at 490 nm and 398 nm before cleavage, respectively. […]"}, "trypsin [2]": {"target": "T1, trypsin", "experiment": "Steady-state kinetics of trypsin digestion of EGFP-based trypsin sensors and BAPNA (absorbance at 490 nm, Michaelis-Menten fit)", "type": "biochemical, bovine", "details": "Table 4; pH 7.4, 10 mM Tris, 20 mM CaCl2"}}}
{"molecule": "B1", "values": [{"measurement": "Dynamic range (DR)", "setting": "trypsin [1]", "result": "1.8034 ± 0.2855"}, {"measurement": "Km", "setting": "trypsin [2]", "result": "4.21 ± 0.71", "unit": "µM"}, {"measurement": "kcat", "setting": "trypsin [2]", "result": "0.85 ± 0.06", "unit": "s⁻¹"}]}
